Test results taken from the RNAGym collection of RNA variant scans (doi:10.1093/nar/gkz1192).
The source gives no read counts; variants with many changes may rest on few reads.

B1: CPEB3 Ribozyme (parent)
chain: UAACAGGGGGCCACAGCAGAAGCGUUCACGUCGCAGCCCCUGUCAGAUUCUGGUGAAUCUGCGAAUUCUGCUGUAUAUCUC

Variants of: B1
Test: self-cleavage, relative activity (ratio to wild type); higher = more cleavage; in vitro, sequencing
Summary of the method: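 CPEB3 self-cleaving ribozyme mutant libraries were made by rounds of error-prone PCR, barcoded, and transcribed in vitro with T7 RNA polymerase for 5 hours at 37°C. Cleavage occurred during transcription and a 15 min DNase I step before EDTA stop. RNAs were reverse transcribed with template switching and Illumina-sequenced, with DNA sequencing mapping barcodes to variants. Relative activity is the variant's cleaved/total read fraction divided by wild type's (minimum 5 reads), averaged across three batches.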

Row | Variant | self-cleavage
1 | U58C A64G C81A | 0.38
2 | A56U U60A U78C U80C | 0.28
3 | U58A U66C U72C U80C | 0.16
4 | A56C U58C U69C | 0.45
5 | A56G A64U U74C | 0.48
6 | A57U U60C U78C U80C | 0.09
7 | A57G U60C U78C | 0.24
8 | A56G A64U U78C U80C | 0.16
9 | A56U U72C U74A A75G | 1.21
10 | U60C A64G U66C | 0.3
11 | U58A C59A U72A U80G | 0.29
12 | U60C A65G A75G | 0.21
13 | A56G A57G U76C | 0.4
14 | A56U A65U U72C | 0.22
15 | A56U G70U U72A U80C | 0.15
16 | U58C U60G U66C | 0.18
17 | A56G U69C A77U | 0.62
18 | A57G U67C U74C | 0.33
19 | A57U U69C U80A | 0.17
20 | U58C C62G U72G | 0.27
21 | A56U U69C U80C | 0.32
22 | A56G A57G A77G | 0.39
23 | U60A C71G U78A | 0.26
24 | U60C A65G U80C | 0.37

Row | Variant | self-cleavage
25 | C59U U60C U66C U67C U69C | 0.23
26 | A57C U67A A77G | 0.2
27 | A56U C62G U69A | 0.32
28 | A56G U60C G61A A77U | 0.4
29 | U60C C79U U80C | 0.29
30 | A56G U58G C79A | 0.25
31 | A56G U60C U74C | 0.86
32 | A56G A65G U67A | 0.17
33 | U60C U69A U74C U78C | 0.42
34 | A57G U74C U78C | 0.92
35 | A57U U60G U67C | 0.16
36 | U58C U74A U80C | 0.92
37 | A57G U58C U67C U69A | 0.4
38 | G63C A65U U69A | 0.27
39 | A56U U60A A64G U69C | 0.24
40 | G55U U74A U80C | 1.26
41 | A56U A57G C62U A64G | 0.1
42 | A56G U58C U60C A64U | 0.13
43 | A56U C71U U80A | 0.41
44 | A57U U67A C81A | 0.21
45 | A57G C59A A64U | 0.12
46 | A56G U69C U78C | 0.48
47 | A57C U67C U72A U78C | 0.1
48 | C59U C71G U76A | 0.18

Row | Variant | self-cleavage
49 | A56G U69A U74C | 0.96
50 | A56G A57G G61C A65U | 0.12
51 | U60A G63C G70A | 0.38
52 | A57G U58C U69C | 0.22
53 | A56G C59U A64U G73A A77G | 0.46
54 | A56U A64G U80C | 0.72
55 | A56G U60C A65G | 0.3
56 | A57G U74C U80C | 0.99
57 | G55U A56G A64U U76C | 0.23
58 | U60A U72C A77U U78C | 0.59
59 | A57G U58C U67C | 0.4
60 | U60A A64U U67A | 0.1
61 | G63A A64U U72G | 0.39
62 | A56G A57G A75G | 0.32
63 | A57G C59A G61C | 0.1
64 | U58C U60A U74G | 0.15
65 | A56G A64G U72C | 0.87
66 | U60C U72A A77G | 0.51
67 | A57G U66A U69A | 0.26
68 | A56U U58C U78A | 0.22
69 | A57G U60A U80C | 0.28
70 | U58A U60A U80A | 0.29
71 | A64C U69C U72A | 0.23
72 | A57G U66C U69A | 0.23

Row | Variant | self-cleavage
73 | U58C U67C U80C | 0.13
74 | C62A A64G U76C | 0.11
75 | A57G A65C U69C U80C | 0.19
76 | A56U A65C U80A | 0.44
77 | A57G A64G U69A U78A | 0.36
78 | A57G U72A U76C | 0.64
79 | U58C U72C U76C | 0.81
80 | A56G C62U A64U | 0.23
81 | U58C A64G U80A | 0.31
82 | C59U U67C U78G C81A | 0.47
83 | G55U U72C U80A | 1.27
84 | G61C G63U U78C | 0.29
85 | C59G C71A U72A A77G | 0.12
86 | U60A A64G A65G U69C | 0.39
87 | U58A U67C U69C U72A | 0.18
88 | G63A A65G U66C | 0.3
89 | U60A C62A U76A | 0.31
90 | A56U U72A A77C | 0.36
91 | A57G U67C U69C A77G | 0.22
92 | A57G A64G U69A U72C | 0.33
93 | U58C C59U U67C | 0.21
94 | A56G U72G U80G | 1.06
95 | G63A U69C U72C | 0.26
96 | U58A U78A U80A | 0.31

Row | Variant | self-cleavage
97 | A64G A65G C68A | 0.21
98 | U60G U66G U80C | 0.22
99 | A57G G63A U80C | 0.86
100 | C62U U74C U76C | 0.45
101 | A57G U69C U80A | 0.45
102 | A56G U66A U78C | 0.17
103 | U60C U66G U72C | 0.16
104 | A57G U67A C71U A75G U80A | 0.11
105 | U60A U72C A77G | 0.85
106 | U60G U72C U78C | 0.25
107 | U60C U66C A77U U80A | 0.29
108 | A64G A65G U67C | 0.21
109 | A56U U66C U74C | 0.25
110 | U58C A64G U69C U78C | 0.17
111 | A56U A64C A65G | 0.12
112 | A56U U66C U80C | 0.24
113 | A57U U67C G70U U72C | 0.18
114 | A57G U66C U74C | 0.26
115 | A64G A65C U66C | 0.27
116 | A56U U76G C79A | 1.14
117 | A56G U58G C59A A75U | 0.05
118 | G61A C71U U72C | 0.11
119 | A56G U66A U74C | 0.82
120 | U60A C62G A64U U66C | 0.3

Row | Variant | self-cleavage
121 | C62G A77G U80G | 0.13
122 | A56U U60A A65U U67A U80A | 0.24
123 | U58C U60C U74C | 0.23
124 | G55C U69A U72A | 0.19
125 | G61A U72C A77U | 0.99
126 | A56U U72C U76A | 0.71
127 | A56G U72A A77C | 0.24
128 | A64G A65G A77U U80C | 0.21
129 | U60C A64U U66A | 0.22
130 | U60A A75G U80A | 0.33
131 | A56U G73A U78C | 1.12
132 | A56U U58A C62U A64G | 0.07
133 | U58C U74C U80A | 1.13
134 | C62U G70A C79U | 0.3
135 | C59U U66C U74C | 0.62
136 | A57G G63A G73C U74A | 1.31
137 | U60A U67C U76C | 0.39
138 | A56G U58C U67A | 0.23
139 | A56U U58A U60A A65G | 0.15
140 | A57G U60A U72A | 0.25
141 | A56G A65G U69C A77G U78C | 0.31
142 | U60C A75U U78C | 0.75
143 | A57G A65G C71G | 0.23
144 | A57U U78C U80A | 0.93

Row | Variant | self-cleavage
145 | A56G G61A U78C | 0.39
146 | A57G U76G A77G | 0.59
147 | U58C U60C U72C | 0.41
148 | A57G A64U U74A | 0.35
149 | A56G U66C G73U | 0.59
150 | A57G U72C A75G | 1.19
151 | U60C A77G U80C | 0.45
152 | A56G C59A C68A A77G C79G | 0.27
153 | A56C U69C U72C | 0.24
154 | U58C A64G U74C | 0.48
155 | A56U U69A U76C U80G | 0.1
156 | A57G A64U U66A U74A | 0.21
157 | U60C A64G U72A | 0.26
158 | A56G U67A U78C | 0.31
159 | G63A U67C U72A | 0.22
160 | A56G A57U U69C | 0.22
161 | U58C A64U A75G | 0.17
162 | U58C A75U U80C | 0.88
163 | A56G U67C C71A | 0.18
164 | U58C U60A U66C C68U U69A C71U U80C | 0.38
165 | U60C U67C U78A | 0.21
166 | A57C U66G U80A | 0.32
167 | U60C C68U C79A | 0.65
